Test results: the supplement of paper PMC8728848
The list shows a part of the results.

Key:
Test in all cases: glycan array binding signal (z-score within array); higher = stronger binding
Settings in all cases: glycan notation: IUPAC condensed, linker removed
[1] = biological target: Neu5Ac(a2-3)Gal(b1-3)GlcNAc
How it was run: (§1)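 Columns mapping to the same glycan were averaged after glycan names were converted to IUPAC-condensed notation. The data come from 3228 arrays in the Consortium for Functional Glycomics database, limited to those with an available protein sequence. Binding is reported as a within-array Z-score averaged across arrays of one protein sequence and across linkers.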

[2] = biological target: Neu5Ac(a2-3)Gal(b1-3)GlcNAc(b1-2)Man
How it was run: as §1

[3] = biological target: Neu5Ac(a2-3)Gal(b1-3)GlcNAc(b1-2)Man(a1-3)[GlcNAc(b1-4)][Neu5Ac(a2-3)Gal(b1-3)GlcNAc(b1-2)Man(a1-6)]Man(b1-4)GlcNAc(b1-4)GlcNAc
How it was run: as §1

[4] = biological target: Neu5Ac(a2-3)Gal(b1-3)GlcNAc(b1-2)Man(a1-3)[Neu5Ac(a2-3)Gal(b1-3)GlcNAc(b1-2)Man(a1-6)]Man(b1-4)GlcNAc(b1-4)GlcNAc
How it was run: as §1

[5] = biological target: Neu5Ac(a2-3)Gal(b1-3)GlcNAc(b1-3)Gal(b1-3)GlcNAc
How it was run: as §1

[6] = biological target: Neu5Ac(a2-3)Gal(b1-3)GlcNAc(b1-3)Gal(b1-4)GlcNAc
How it was run: as §1

[7] = biological target: Neu5Ac(a2-3)Gal(b1-3)GlcNAc(b1-3)GalNAc
How it was run: as §1

[8] = biological target: Neu5Ac(a2-3)Gal(b1-3)GlcNAc(b1-4)Gal(b1-4)Glc
How it was run: as §1

[9] = biological target: Neu5Ac(a2-3)Gal(b1-3)GlcNAc(b1-6)GalNAc
How it was run: as §1

[10] = biological target: Neu5Ac(a2-3)Gal(b1-3)GlcNAc6S
How it was run: as §1

[11] = biological target: Neu5Ac(a2-3)Gal(b1-3)[Fuc(a1-4)]GlcNAc
How it was run: as §1

[12] = biological target: Neu5Ac(a2-3)Gal(b1-3)[Fuc(a1-4)]GlcNAc(b1-3)Gal(b1-3)[Fuc(a1-4)]GlcNAc
How it was run: as §1

[13] = biological target: Neu5Ac(a2-3)Gal(b1-3)[Fuc(a1-4)]GlcNAc(b1-3)Gal(b1-4)[Fuc(a1-3)]GlcNAc
How it was run: as §1

[14] = biological target: Neu5Ac(a2-3)Gal(b1-3)[GlcNAc(b1-6)]GalNAc
How it was run: as §1

[15] = biological target: Neu5Ac(a2-3)Gal(b1-3)[Neu5Ac(a2-3)Gal(b1-4)]GlcNAc
How it was run: as §1

[16] = biological target: Neu5Ac(a2-3)Gal(b1-3)[Neu5Ac(a2-6)]GalNAc
How it was run: as §1

[17] = biological target: Neu5Ac(a2-3)Gal(b1-3)[Neu5Ac(a2-6)]GlcNAc(b1-3)[Fuc(a1-3)[Gal(b1-4)]GlcNAc(b1-6)]Gal(b1-4)Glc
How it was run: as §1

[18] = biological target: Neu5Ac(a2-3)Gal(b1-3)]Neu5Ac(a2-3)Gal(b1-4)]GlcNAc
How it was run: as §1

[19] = biological target: Neu5Ac(a2-3)Gal(b1-4)Glc
How it was run: as §1

[20] = biological target: Neu5Ac(a2-3)Gal(b1-4)GlcNAc
How it was run: as §1

[21] = biological target: Neu5Ac(a2-3)Gal(b1-4)GlcNAc(b1-2)Man
How it was run: as §1

[22] = biological target: Neu5Ac(a2-3)Gal(b1-4)GlcNAc(b1-2)Man(a1-3)[GlcNAc(b1-4)][Neu5Ac(a2-3)Gal(b1-4)GlcNAc(b1-2)Man(a1-6)]Man(b1-4)GlcNAc(b1-4)GlcNAc
How it was run: as §1

[23] = biological target: Neu5Ac(a2-3)Gal(b1-4)GlcNAc(b1-2)Man(a1-3)[Neu5Ac(a2-3)Gal(b1-4)GlcNAc(b1-2)Man(a1-6)]Man(b1-4)GlcNAc(b1-4)GlcNAc
How it was run: as §1

[24] = biological target: Neu5Ac(a2-3)Gal(b1-4)GlcNAc(b1-2)Man(a1-3)[Neu5Ac(a2-3)Gal(b1-4)GlcNAc(b1-2)Man(a1-6)]Man(b1-4)GlcNAc(b1-4)[Fuc(a1-6)]GlcNAc
How it was run: as §1

[25] = biological target: Neu5Ac(a2-3)Gal(b1-4)GlcNAc(b1-2)Man(a1-3)[Neu5Ac(a2-6)Gal(b1-4)GlcNAc(b1-2)Man(a1-6)]Man(b1-4)GlcNAc(b1-4)GlcNAc
How it was run: as §1

[26] = biological target: Neu5Ac(a2-3)Gal(b1-4)GlcNAc(b1-2)[Neu5Ac(a2-3)Gal(b1-4)GlcNAc(b1-4)]Man(a1-3)[GlcNAc(b1-4)][Neu5Ac(a2-3)Gal(b1-4)GlcNAc(b1-2)[Neu5Ac(a2-3)Gal(b1-4)GlcNAc(b1-6)]Man(a1-6)]Man(b1-4)GlcNAc(b1-4)GlcNAc
How it was run: as §1

[27] = biological target: Neu5Ac(a2-3)Gal(b1-4)GlcNAc(b1-2)[Neu5Ac(a2-3)Gal(b1-4)GlcNAc(b1-4)]Man(a1-3)[GlcNAc(b1-4)][Neu5Ac(a2-3)Gal(b1-4)GlcNAc(b1-4)Man(a1-6)]Man(b1-4)GlcNAc(b1-4)GlcNAc
How it was run: as §1

[28] = biological target: Neu5Ac(a2-3)Gal(b1-4)GlcNAc(b1-2)[Neu5Ac(a2-3)Gal(b1-4)GlcNAc(b1-6)]Man(a1-6)[Neu5Ac(a2-3)Gal(b1-4)GlcNAc(b1-2)Man(a1-3)]Man(b1-4)GlcNAc(b1-4)GlcNAc
How it was run: as §1

[29] = biological target: Neu5Ac(a2-3)Gal(b1-4)GlcNAc(b1-2)[Neu5Ac(a2-3)Gal(b1-4)GlcNAc(b1-6)]Man(a1-6)[Neu5Ac(a2-3)Gal(b1-4)GlcNAc(b1-2)Man(a1-3)][GlcNAc(b1-4)]Man(b1-4)GlcNAc(b1-4)GlcNAc
How it was run: as §1

[30] = biological target: Neu5Ac(a2-3)Gal(b1-4)GlcNAc(b1-3)Gal
How it was run: as §1

[31] = biological target: Neu5Ac(a2-3)Gal(b1-4)GlcNAc(b1-3)Gal(b1-3)GlcNAc
How it was run: as §1

[32] = biological target: Neu5Ac(a2-3)Gal(b1-4)GlcNAc(b1-3)Gal(b1-4)GlcNAc
How it was run: as §1

[33] = biological target: Neu5Ac(a2-3)Gal(b1-4)GlcNAc(b1-3)Gal(b1-4)GlcNAc(b1-2)Man(a1-3)[Neu5Ac(a2-3)Gal(b1-4)GlcNAc(b1-3)Gal(b1-4)GlcNAc(b1-2)Man(a1-6)]Man(b1-4)GlcNAc(b1-4)GlcNAc
How it was run: as §1

[34] = biological target: Neu5Ac(a2-3)Gal(b1-4)GlcNAc(b1-3)Gal(b1-4)GlcNAc(b1-3)Gal(b1-4)GlcNAc
How it was run: as §1

[35] = biological target: Neu5Ac(a2-3)Gal(b1-4)GlcNAc(b1-3)Gal(b1-4)GlcNAc(b1-3)Gal(b1-4)GlcNAc(b1-2)Man(a1-3)[Neu5Ac(a2-3)Gal(b1-4)GlcNAc(b1-3)Gal(b1-4)GlcNAc(b1-3)Gal(b1-4)GlcNAc(b1-2)Man(a1-6)]GalNAc
How it was run: as §1

[36] = biological target: Neu5Ac(a2-3)Gal(b1-4)GlcNAc(b1-3)Gal(b1-4)GlcNAc(b1-3)GalNAc
How it was run: as §1

[37] = biological target: Neu5Ac(a2-3)Gal(b1-4)GlcNAc(b1-3)Gal(b1-4)GlcNAc(b1-3)[Neu5Ac(a2-3)Gal(b1-4)GlcNAc(b1-3)Gal(b1-4)GlcNAc(b1-6)]GalNAc
How it was run: as §1

[38] = biological target: Neu5Ac(a2-3)Gal(b1-4)GlcNAc(b1-3)Gal(b1-4)GlcNAc(b1-6)[Gal(b1-3)]GalNAc
How it was run: as §1

[39] = biological target: Neu5Ac(a2-3)Gal(b1-4)GlcNAc(b1-3)Gal(b1-4)[Fuc(a1-3)]GlcNAc
How it was run: as §1

[40] = biological target: Neu5Ac(a2-3)Gal(b1-4)GlcNAc(b1-3)GalNAc
How it was run: as §1

[41] = biological target: Neu5Ac(a2-3)Gal(b1-4)GlcNAc(b1-3)[Neu5Ac(a2-3)Gal(b1-4)GlcNAc(b1-6)]GalNAc
How it was run: as §1

[42] = biological target: Neu5Ac(a2-3)Gal(b1-4)GlcNAc(b1-6)GalNAc
How it was run: as §1

[43] = biological target: Neu5Ac(a2-3)Gal(b1-4)GlcNAc(b1-6)[Gal(b1-3)]GalNAc
How it was run: as §1

[44] = biological target: Neu5Ac(a2-3)Gal(b1-4)GlcNAc(b1-6)[Neu5Ac(a2-3)Gal(b1-3)]GalNAc
How it was run: as §1

[45] = biological target: Neu5Ac(a2-3)Gal(b1-4)GlcNAc6S
How it was run: as §1

B1: NPA (Narcissus pseudonarcissus), C0HM45 (protein)
chain: DNILYSGETLSPGEFLNNGRYVFIMQEDCNLVLYDVDKPIWATNTGGLDRRCHLSMQSDGNLVVYSPRNNPIWASNTGGENGNYVCVLQKDRNVVIYGTARWATGTNIH
glycan array binding signal (z-score) [1]: -0.155 | glycan array binding signal (z-score) [2]: -0.122 | glycan array binding signal (z-score) [3]: -0.074 | glycan array binding signal (z-score) [4]: -0.143 | glycan array binding signal (z-score) [5]: -0.15 | glycan array binding signal (z-score) [6]: -0.153 | glycan array binding signal (z-score) [7]: -0.14 | glycan array binding signal (z-score) [8]: -0.113 | glycan array binding signal (z-score) [9]: -0.143 | glycan array binding signal (z-score) [10]: -0.124 | glycan array binding signal (z-score) [11]: -0.16 | glycan array binding signal (z-score) [12]: -0.046 | glycan array binding signal (z-score) [13]: -0.112 | glycan array binding signal (z-score) [14]: -0.14 | glycan array binding signal (z-score) [15]: -0.213 | glycan array binding signal (z-score) [16]: -0.138 | glycan array binding signal (z-score) [17]: -0.158 | glycan array binding signal (z-score) [18]: -0.145 | glycan array binding signal (z-score) [19]: -0.144 | glycan array binding signal (z-score) [20]: -0.154 | glycan array binding signal (z-score) [21]: -0.128 | glycan array binding signal (z-score) [22]: -0.15 | glycan array binding signal (z-score) [23]: -0.144 | glycan array binding signal (z-score) [24]: -0.151 | glycan array binding signal (z-score) [25]: -0.145 | glycan array binding signal (z-score) [26]: -0.155 | glycan array binding signal (z-score) [27]: -0.153 | glycan array binding signal (z-score) [28]: -0.086 | glycan array binding signal (z-score) [29]: -0.158 | glycan array binding signal (z-score) [30]: -0.164 | glycan array binding signal (z-score) [31]: -0.149 | glycan array binding signal (z-score) [32]: -0.143 | glycan array binding signal (z-score) [33]: -0.03 | glycan array binding signal (z-score) [34]: -0.151 | glycan array binding signal (z-score) [35]: 0.14 | glycan array binding signal (z-score) [36]: -0.144 | glycan array binding signal (z-score) [37]: -0.123 | glycan array binding signal (z-score) [38]: -0.122 | glycan array binding signal (z-score) [39]: -0.159 | glycan array binding signal (z-score) [40]: -0.139 | glycan array binding signal (z-score) [41]: -0.15 | glycan array binding signal (z-score) [42]: -0.144 | glycan array binding signal (z-score) [43]: -0.146 | glycan array binding signal (z-score) [44]: -0.152 | glycan array binding signal (z-score) [45]: -0.154
